The list shows a part of the results.
B1: PhoQ; a variant is named by its letters at X, in order, P23837 (parent)
chain: MKKLLRLFFPLSLRVRFLLATAAVVLVLSLAYGMVALIGYSVSFDKTTFRLLRGESNLFYTLAKWENNKLHVELPENIDKQSPTMTLIYDENGQLLWAQRDVPWLMKMIQPDWLKSNGFHEIEADVNDTSLLLSGDHSIQQQLQEVREDDDDAEMTHSVAVNVYPATSRMPKLTIVVVDTIPVELKSSYMVWSWFIYVLSANLLLVIPLLWVAAWWSLRPIEALAKEVRELEEHNRELLNPATTRELTSLVRNLNRLLKSERERYDKYRTTLTDLTHSLKTPLXXLQXXLRSLRSEKMSVSDAEPVMLEQISRISQQIGYYLHRASMRGGTLLSRELHPVAPLLDNLTSALNKVYQRKGVNISLDISPEISFVGEQNDFVEVMGNVLDNACKYCLEFVEISARQTDEHLYIVVEDDGPGIPLSKREVIFDRGQRVDTLRPGQGVGLAVAREITEQYEGKIVAGESMLGGARMEVIFGRQHSAPKDE

Variants of: B1
Assay: enrichment ratio after two sorts for PhoP signalling (ratio (wild type AVST 3.29)); higher = more functional
Conditions: with PhoP (E. coli)

Variant | enrichment ratio
FAKH | ≤ 0.25
DCDK | ≤ 0.25
SHKC | ≤ 0.25
VWTG | ≤ 0.25
ASPA | ≤ 0.25
TRHT | ≤ 0.25
YSFG | ≤ 0.25
YGWR | ≤ 0.25
SAQM | 8.97
KTYQ | ≤ 0.25
QQPA | ≤ 0.25
LVCH | ≤ 0.25
PSRK | ≤ 0.25
DGCL | ≤ 0.25
NVKP | ≤ 0.25
EMAD | ≤ 0.25
DTCW | ≤ 0.25
GHQD | ≤ 0.25
HTML | 11.7
VWFM | ≤ 0.25
MCYI | 27.7
MHLG | ≤ 0.25
KYLH | ≤ 0.25
YSPI | ≤ 0.25
YNYR | ≤ 0.25
CWFR | ≤ 0.25

Variant | enrichment ratio
GWDI | ≤ 0.25
PSAS | ≤ 0.25
ISFA | ≤ 0.25
RNIG | ≤ 0.25
ILQS | ≤ 0.25
GVNW | ≤ 0.25
LMYM | ≤ 0.25
MCPC | 3.66
HFVE | ≤ 0.25
IIDI | ≤ 0.25
FILY | ≤ 0.25
LDFV | ≤ 0.25
ADKP | ≤ 0.25
APSQ | ≤ 0.25
GVAR | ≤ 0.25
HMVK | ≤ 0.25
DAKY | ≤ 0.25
ACTL | 15.2
DFKP | ≤ 0.25
DWFQ | ≤ 0.25
TEGV | 12.6
SKDG | ≤ 0.25
RCKH | ≤ 0.25
MLFD | ≤ 0.25
IESM | ≤ 0.25
NDTG | ≤ 0.25

Variant | enrichment ratio
WAPF | ≤ 0.25
DESY | ≤ 0.25
VPLE | ≤ 0.25
HEML | ≤ 0.25
LYNS | ≤ 0.25
VLKF | ≤ 0.25
TIWV | ≤ 0.25
VLPD | ≤ 0.25
YVMH | 0.338
PHCM | ≤ 0.25
WLTR | ≤ 0.25
FHPW | ≤ 0.25
NPWN | ≤ 0.25
VVQA | ≤ 0.25
LSLH | ≤ 0.25
GNHD | ≤ 0.25
FAHY | ≤ 0.25
YPQI | ≤ 0.25
RIYQ | ≤ 0.25
IRQH | ≤ 0.25
WCAG | ≤ 0.25
PESL | ≤ 0.25
MGRT | ≤ 0.25
DPLI | ≤ 0.25
YEWK | ≤ 0.25
DLTT | ≤ 0.25

Variant | enrichment ratio
WKPV | ≤ 0.25
GNMV | 3.49
LPPL | ≤ 0.25
WKVN | ≤ 0.25
LIVH | ≤ 0.25
IDIR | ≤ 0.25
DMHL | ≤ 0.25
YCQW | ≤ 0.25
MNPH | ≤ 0.25
RWSI | ≤ 0.25
KVLD | ≤ 0.25
VGLG | 7.34
LDIQ | ≤ 0.25
NPCT | ≤ 0.25
PREI | ≤ 0.25
FCHM | ≤ 0.25
FARN | ≤ 0.25
DDTC | ≤ 0.25
VPEL | ≤ 0.25
ETMG | ≤ 0.25
FLRF | ≤ 0.25
VVPD | ≤ 0.25
VPVF | ≤ 0.25
KEGH | ≤ 0.25
MEIW | ≤ 0.25
GPFQ | ≤ 0.25

Variant | enrichment ratio
EFFI | ≤ 0.25
DLGY | ≤ 0.25
YFQT | ≤ 0.25
HSHC | ≤ 0.25
IRCM | ≤ 0.25
INEC | ≤ 0.25
KLLN | ≤ 0.25
LWYM | ≤ 0.25
EKVG | ≤ 0.25
GRVR | ≤ 0.25
FAPH | 2.01
SLNL | 0.915
EYQQ | ≤ 0.25
QSAE | ≤ 0.25
VSKG | ≤ 0.25
YGRY | ≤ 0.25
QTTT | ≤ 0.25
HAYF | ≤ 0.25
GNNI | ≤ 0.25
YGWH | ≤ 0.25
ACGR | ≤ 0.25
RFMA | 0.944
TQCN | 24.9
PISW | ≤ 0.25
PCSS | ≤ 0.25
SVHV | 6.57

Variant | enrichment ratio
ANTS | 21.1
SIWI | ≤ 0.25
WPGC | ≤ 0.25
QSPV | ≤ 0.25
MDIW | ≤ 0.25
PKSH | ≤ 0.25
SKPC | ≤ 0.25
RDMH | ≤ 0.25
RGWF | ≤ 0.25
KLYH | ≤ 0.25
KFYY | ≤ 0.25
HSRE | ≤ 0.25
KFVN | ≤ 0.25
IFTQ | ≤ 0.25
EHHW | ≤ 0.25
LLMI | ≤ 0.25
FDKM | ≤ 0.25
ISWS | ≤ 0.25
KYGG | ≤ 0.25
FDIM | ≤ 0.25
FKGA | ≤ 0.25
YRTD | ≤ 0.25
RCPL | ≤ 0.25

From a collection of fitness landscapes (doi:10.1126/science.1257360)
